According to the RNAGym collection of RNA variant scans (doi:10.7554/elife.90254):
Read counts are not given, so values of variants with three or more changes are uncertain.

B1: LINE1-mini (parent)
chain: GGCAGAGCUCAACACAGCGUGGCAAAGUGGCUGUGGCUAGACUGCC

Variants of: B1
Experiment: self-cleavage, relative activity (ratio to wild type); higher = more cleavage; in vitro, sequencing; the parent is a self-cleaving ribozyme

**Q.** For GGCAGAGCUCAACACAGCGUGGCAAAGAGACUAUGGCUAGACUGCC, which self-cleavage is on record?
**A.** 0.11

**Q.** Which self-cleavage does the source give for GGCAGAGCUCAACACAGCGUGGCAAAGGGGCUAUGGCUAGACUGGC here?
**A.** 0.02

**Q.** With GGCAGAGCUCAACACAGCGUGGCAAAGAGGCAGUGGCUAGACUGCU as the variant, how does the self-cleavage read?
**A.** 0.09

**Q.** Which self-cleavage does the source give for GGCAGAGCUCAACACAGCGUGGCAAAGCGACUAUGGCUAGACUGCC here?
**A.** 0.35

**Q.** For GGCAGAGCUCAACACAGCGUGGCAAAGUAGCACUGGGUAGACUGCC, which self-cleavage is on record?
**A.** 0.02

**Q.** With GGCAGAGCUCAACACAGCGUGGCAAAGUAGCUGUAGCUAGACUGCU as the variant, how does the self-cleavage read?
**A.** 0.24

**Q.** Which self-cleavage does the source give for GGCAGAGCUCAACACAGCGUGGCAAAGAGGCUGCGGCUGGACUGCC here?
**A.** 0.01

**Q.** With GGCAGAGCUCAACACAGCGUGGCAAAGUAGCUGUGGGCAGGCUGCC as the variant, how does the self-cleavage read?
**A.** 0.02

**Q.** Which self-cleavage does the source give for GGCAGAGCUCAACACAGCGUGGCAAAGUAGCUGAGGCUCGACUGCC here?
**A.** 0.13

**Q.** Which self-cleavage does the source give for GGCAGAGCUCAACACAGCGUGGCAAAGGGGCUGUCGCUAGAUUGCC here?
**A.** 0.07

**Q.** With GGCAGAGCUCAACACAGCGUGGCAAAGUAGCGGUCGCUAGACUGCC as the variant, how does the self-cleavage read?
**A.** 0.2

**Q.** With GGCAGAGCUCAACACAGCGUGGCAAAGUAGUUGUGGUUAUACUGCC as the variant, how does the self-cleavage read?
**A.** 0.15

**Q.** For GGCAGAGCUCAACACAGCGUGGCAAAGGAGCUGUGUCUAGGCUGCC, which self-cleavage is on record?
**A.** 0.08

**Q.** With GGCAGAGCUCAACACAGCGUGGCAAAGUAGCUGGGGCUACACUGCC as the variant, how does the self-cleavage read?
**A.** 0.04

**Q.** Which self-cleavage does the source give for GGCAGAGCUCAACACAGCGUGGCAAAGAAGCCGUGGCUAGACUGCC here?
**A.** 0.09

**Q.** For GGCAGAGCUCAACACAGCGUGGCAAAGGGGCUGUGACGAGAAUGCC, which self-cleavage is on record?
**A.** 0

**Q.** Which self-cleavage does the source give for GGCAGAGCUCAACACAGCGUGGCAAAGGGGCUGUGGCUAGACUAUC here?
**A.** 0.02

**Q.** With GGCAGAGCUCAACACAGCGUGGCAAAGUAGCUGUGACUAGACUGUC as the variant, how does the self-cleavage read?
**A.** 0.18

**Q.** For GGCAGAGCUCAACACAGCGUGGCAAAGGGGCUGUGGCUAGACUGGU, which self-cleavage is on record?
**A.** 0.06

**Q.** For GGCAGAGCUCAACACAGCGUGGCAAAGCGGCAGUGGCUCGACUGCC, which self-cleavage is on record?
**A.** 0.01

**Q.** Which self-cleavage does the source give for GGCAGAGCUCAACACAGCGUGGCAAAGGGGCUGUGGCCAGAAUGCC here?
**A.** 0.04

**Q.** For GGCAGAGCUCAACACAGCGUGGCAAAGCGGCUCUGGCUAGAUUGCC, which self-cleavage is on record?
**A.** 0.03

**Q.** Which self-cleavage does the source give for GGCAGAGCUCAACACAGCGUGGCAAAGGGUCUCUGGCUAGACUGGC here?
**A.** 0.01

**Q.** Which self-cleavage does the source give for GGCAGAGCUCAACACAGCGUGGCAAAGGGGCUGUGGCGACACUGCC here?
**A.** 0.02

**Q.** For GGCAGAGCUCAACACAGCGUGGCAAAGCGGCUCUGGCUAGACUUCC, which self-cleavage is on record?
**A.** 0.03

**Q.** Which self-cleavage does the source give for GGCAGAGCUCAACACAGCGUGGCAAAGUAGCUGUGGCUCGACUGGC here?
**A.** 0.63

**Q.** For GGCAGAGCUCAACACAGCGUGGCAAAGGCGCUGGGGCUAGACUGCU, which self-cleavage is on record?
**A.** 0.2

**Q.** With GGCAGAGCUCAACACAGCGUGGCAAAGCGGCUGUUGCAAUACUUAC as the variant, how does the self-cleavage read?
**A.** 0.03

**Q.** Which self-cleavage does the source give for GGCAGAGCUCAACACAGCGUGGCAAAUUGGCUGUGGCUAGACAGCA here?
**A.** 0.05

**Q.** For GGCAGAGCUCAACACAGCGUGGCAAAGCGGCUGUUACGAGACUGCC, which self-cleavage is on record?
**A.** 0.03

**Q.** For GGCAGAGCUCAACACAGCGUGGCAAAGUAGCUGUCACUAGACUGCC, which self-cleavage is on record?
**A.** 0.06

**Q.** For GGCAGAGCUCAACACAGCGUGGCAAAGGGGCUGUGGGUAGACCGCC, which self-cleavage is on record?
**A.** 0.09

**Q.** With GGCAGAGCUCAACACAGCGUGGCAAAGGGGCUGUGGCGGGACUGCC as the variant, how does the self-cleavage read?
**A.** 0.02

**Q.** Which self-cleavage does the source give for GGCAGAGCUCAACACAGCGUGGCAAAGCGGCCGUGGCUAGACUGAC here?
**A.** 0.01

**Q.** For GGCAGAGCUCAACACAGCGUGGCAAAGCGGCCGUGGCUAGACCGCC, which self-cleavage is on record?
**A.** 0.02

**Q.** Which self-cleavage does the source give for GGCAGAGCUCAACACAGCGUGGCAAAGGGGCUGAGGCUUGACUGCC here?
**A.** 0.08

**Q.** With GGCAGAGCUCAACACAGCGUGGCAAAGGGGUUGCGGCUAGACUGCG as the variant, how does the self-cleavage read?
**A.** 0

**Q.** Which self-cleavage does the source give for GGCAGAGCUCAACACAGCGUGGCAAAGGGACUAAGGCUAGACUGCC here?
**A.** 0.03

**Q.** Which self-cleavage does the source give for GGCAGAGCUCAACACAGCGUGGCAAAGAUGCUGUGGCUAGACAGCC here?
**A.** 0.07

**Q.** With GGCAGAGCUCAACACAGCGUGGCAAAGAGGCUGUGGCUAUAGUGCC as the variant, how does the self-cleavage read?
**A.** 0.02

**Q.** For GGCAGAGCUCAACACAGCGUGGCAAAGGGGCUGUGGCUAGUCUGAC, which self-cleavage is on record?
**A.** 0.22

**Q.** With GGCAGAGCUCAACACAGCGUGGCAAAGUAGCUGAGGCUAGCCUGCC as the variant, how does the self-cleavage read?
**A.** 0.1

**Q.** Which self-cleavage does the source give for GGCAGAGCUCAACACAGCGUGGCAAAGUAGCAGUGGCUUGAAUGCC here?
**A.** 0.03

**Q.** Which self-cleavage does the source give for GGCAGAGCUCAACACAGCGUGGCAAAGCGGCCGUGGCCAGACUGCC here?
**A.** 0.11

**Q.** With GGCAGAGCUCAACACAGCGUGGCAAAGUAGCUGUGGUUGGAAUGCC as the variant, how does the self-cleavage read?
**A.** 0.03

**Q.** With GGCAGAGCUCAACACAGCGUGGCAAAGUAGCUGUGGAUAGACUGCU as the variant, how does the self-cleavage read?
**A.** 0.03

**Q.** For GGCAGAGCUCAACACAGCGUGGCAAAGGGGCUGUGGCUAGAGUGGC, which self-cleavage is on record?
**A.** 0.03

**Q.** Which self-cleavage does the source give for GGCAGAGCUCAACACAGCGUGGCAAAGGGGCUGGGGCUAUACUGCC here?
**A.** 0.01

**Q.** Which self-cleavage does the source give for GGCAGAGCUCAACACAGCGUGGCAAAGGGGCUGUGUCUAGACCGCC here?
**A.** 0.02

**Q.** With GGCAGAGCUCAACACAGCGUGGCAAAGGGGGUGUGGCUAGACUGGC as the variant, how does the self-cleavage read?
**A.** 0.01

**Q.** For GGCAGAGCUCAACACAGCGUGGCAAAGCGGCUGCGGCUAUACUGCC, which self-cleavage is on record?
**A.** 0.03

**Q.** For GGCAGAGCUCAACACAGCGUGGCAAAGGGGCUGUGGCAAGACUUCC, which self-cleavage is on record?
**A.** 0.18

**Q.** Which self-cleavage does the source give for GGCAGAGCUCAACACAGCGUGGCAAAGUAGCUGUGUCUCGACUGCC here?
**A.** 0.02

**Q.** Which self-cleavage does the source give for GGCAGAGCUCAACACAGCGUGGCAAAGGGGCUGUGGCUGGACUUCC here?
**A.** 0.13

**Q.** With GGCAGAGCUCAACACAGCGUGGCAAAGUACCUGUGGUUAGACUGCC as the variant, how does the self-cleavage read?
**A.** 0.15

**Q.** Which self-cleavage does the source give for GGCAGAGCUCAACACAGCGUGGCAAAGGGGCCGGGGCUAGACUGUC here?
**A.** 0.02
